Reference: PubChem BioAssay AID1508623 (National Center for Advancing Translational Sciences (NCATS), 2021)
About 450 (0.94%) of roughly 48,000 compounds were called active. Roughly 19% stayed inconclusive and do not appear here. The call rests on the fitted dose curve; in most records, active means well fitted inhibition curve with a large enough effect; inconclusive means small, poorly fitted or top-dose-only effect; inactive means no such curve, though single readings can be large or run the other way. This is one part of the list.

Test: Primary qHTS for Identification of Small Molecule Inhibitors of Huntingtin Promoter Activity; further: nearly all actives have a fitted effect of over 50% in size
Conditions: HEK293 HTT promoter firefly luciferase reporter (activity 0% = vehicle and -100% = no light), 24 h; series mostly up to 57.5 µM; activity change, negative = inhibition: at the top concentration
In short: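 Luminescence was read after Dual-Glo reagent and a 10 min room-temperature incubation. Values were normalized to vehicle (0% activity) and zero RLU (-100% activity). Reporter HEK293 cells had been exposed to compounds (up to 57.5 uM final) for 24 h.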
Potency means the concentration at half of the fitted maximal effect.

Activity change, negative = inhibition, inactive:
COc1cccc(COC(=O)c2nn(-c3ccccc3)nc2N)c1 4.01%
CNC(=O)C1CCC(Cn2c(=O)c3sccc3n(Cc3ccccc3)c2=O)CC1 (stereo not given) -0.696%
COc1ccccc1CCNC(=O)c1cc2c(=O)n3cccc(C)c3nc2n1C 31.9%
CCOc1ccc(-c2nc(Cn3c(=O)cc(-c4ccccc4)c4c(C)nn(C)c43)c(C)o2)cc1OC 0%
Cc1ccc(CNC(=O)C2CCN(c3nn4cc(-c5ccc(F)cc5)nc4s3)CC2)cc1 16%
CCN(CC)c1ccc(NC(=O)CCS(=O)(=O)c2cccc3nsnc23)c(C)c1 -4.08%
Cc1cc(S(=O)(=O)Nc2cc3c(cc2C)n(C)c(=O)c(=O)n3C)ccc1F -16.4%
CCSC1=NC2(CCN(C(=O)NC3CCCCC3)CC2)N=C1c1ccc(C)cc1 -14% [at 11.5 µM]
Cc1ccccc1NC(=O)CSc1ncc2c(n1)-c1ccccc1N(C)S2(=O)=O -33.8%
Cc1cc(C)c2c(n1)nn1c(C)c(CCC(=O)Nc3ccc(C)c(Cl)c3)c(C)nc21 -5.81%
Cc1cn2c(=O)cc(COC(=O)c3cccc(NC(=O)C(C)Oc4ccccc4)c3)nc2s1 (stereo not given) -29%
CCOc1ccccc1NC(=O)c1c(NC(=O)C(C)Oc2cccc(Cl)c2)sc2c1CCCCC2 (stereo not given) -11.5%
CCOc1ccc(CC(=O)Nc2c(C(=O)c3ccc(Cl)cc3)oc3ccccc23)cc1OCC 4.52%
CCn1c(Oc2ccc(F)cc2F)nc2c1c(=O)n(C)c(=O)n2C -15.1%
CC1=C(C(=O)Nc2ccc(Cl)cc2)C(c2cccs2)n2nc(SCc3cccc(Cl)c3)nc2N1 (stereo not given) -0.713%
Cc1cccc(S(=O)(=O)c2cn(Cc3ccccc3)c3cc(N4CCC(C)CC4)c(F)cc3c2=O)c1 -25.3%
CCc1cc2c(cc3c(=O)n(CC(=O)NCc4cccc(Cl)c4)nc(CC)n32)s1 8.42%
CCC1=Nc2cc(C(=O)NCCc3ccccc3)ccc2Sc2ccc(Cl)cc21 -20.9%
COc1ccc(Nc2cc(C(=O)NCCCN(C)Cc3ccccc3)c3ccccc3n2)cc1OC -24.3%
COc1ccc(-n2nc3cc(C)c(NC(=O)COc4cccc(C)c4)cc3n2)cc1 2.4%
COc1cccc(OCc2nc3ccccc3n2Cc2ccccc2)c1 0.254%
COc1ccc(NC(=O)c2sc3nc(C)c(C(=O)Nc4ccc(C)cc4C)c(-c4ccc(C)o4)c3c2N)cc1 6.59%
Cc1ccc(Nc2nc(C)cc(C)n2)c(C(=O)O)c1 -10.7%
CC1(C)CC(=O)c2cc(-c3nc(-c4ccc(Cl)cc4)cs3)c(=O)n(-c3ccc(Cl)cc3)c2C1 -17.9%
C#CC(C)(CC)NC(=O)c1cnn2c(C(F)F)cc(-c3ccccc3OC)nc12 (stereo not given) 3.75%
Cc1cc(C)n(CCc2nc3c4ccccc4nc(N4CCN(c5ccccc5F)CC4)n3n2)n1 -12.4%
Cc1ccc(NC(=O)/C(C#N)=C/c2ccc(C)o2)cc1 92%
CC(C)CCNC(=O)c1ccc2c(c1)NC(=O)C(CS(=O)(=O)Cc1cccc(Br)c1)N2 (stereo not given) 6.54%
Cc1ccc(Cn2ccnc2SCC(=O)NCc2ccc(F)cc2)cc1 -23.9%
COc1ccc(NC(=O)CSc2nc3ccccc3n2CC(=O)N(C)c2ccc(F)cc2)cc1 -29.9%
CN1C(=O)C2(SCC(=O)N2c2cccc(C(F)(F)F)c2)c2ccccc21 (stereo not given) -31.3%
CCOC(=O)C1CCC(CN(Cc2ccc(Cl)cc2)S(=O)(=O)c2ccc(Br)cc2)CC1 (stereo not given) 13.7%
CCOC(=O)C1CCN(CC(=O)N2CCCc3c2c(=O)oc2ccc(OCc4ccccc4)cc32)CC1 -11.6%
CC(=O)Oc1cccc(O)c1 -1.74%
CCCN1CCN(CCNC(=O)Nc2ccc(OC)c(OC)c2)CC1 -4.94%
CCOc1ccc(NC(=O)c2cn(C)c(=O)c3cc(OC)c(OC)cc23)cc1 33.1%
CCS(=O)(=O)N1CC(=O)N(c2cccc(Cl)c2C)C(C)(C(=O)NC2CCCCC2)C1 (stereo not given) -7.23%
CCCc1c(OCCCCc2nn[nH]n2)ccc(C(C)=O)c1O -0.42%
COCCNC(=O)CCCN1C(=O)c2ccccc2Sc2ncccc21 -7.05%
Cc1ccc(NC(=O)c2oc3ccc(S(=O)(=O)N(C)C4CCCCC4)cc3c2C)cc1Cl -11.5%
O=S(=O)(c1cccc(F)c1)N1CCC(c2nc3ccccc3s2)CC1 -15.8%
CCCCN(CCCC)CC(O)Cn1cc(/C=C/C(=O)c2ccccc2)c2ccccc21 (stereo not given) -27.1%
COc1cccc2c1cc1c(=O)n(CC(=O)NC3CC3)nc(C)n12 2.5%
O=c1c(=O)n(-c2cccc(Cl)c2)ccn1Cc1cccc(F)c1 -22.6%
CC(=O)N1CCc2cc(S(=O)(=O)NC(CC(C)C)C(=O)NCc3ccccc3)ccc21 (stereo not given) -8.86%
Cc1nnc(SCC(=O)Nc2ccc(Br)cc2)[nH]c1=O -21%
CCCCC(CC)CNC(=O)CCCn1c(=O)[nH]c2ccsc2c1=O (stereo not given) -21%
COc1ccc(C)cc1Nc1nc(-c2cccc(Cl)c2)c2c(n1)-c1ccccc1OC2 -12.9%
Cc1ccc(-c2nc(N3CCN(c4ccccc4Cl)CC3)c3ccccc3n2)cc1 -6.77%
CCOc1ccc(NC(=O)C(NC(=O)C2CCC(C)CC2)C(C)C)cc1 (stereo not given) 0.232%
CCOC(=O)c1cc(-c2ccccc2)n(CC(=O)N(C)c2ccc(OC)cc2)c1C -20.2%
COc1ccc(CNC(=O)CN(c2ccccc2)S(=O)(=O)N(C)C)cc1 2.67%
CCOC(=O)c1cc2c(=O)n3ccccc3nc2n(CCCOC)c1=NC(=O)C(C)Oc1ccccc1 (stereo not given) -16.4%
CN(C)S(=O)(=O)c1ccc(C(=O)N2CC(=O)Nc3ccc(Br)cc3C2c2ccc(F)cc2)cc1 (stereo not given) -3.57%
CC1CCN(C(=O)Cn2c(=O)oc3cc(S(=O)(=O)N4CCCCC4)ccc32)CC1 -17.1%
CCOc1cc(CNc2ccc(O)cc2)ccc1OCc1ccc(Cl)cc1 10.4%
CCOc1ccc(CC(=O)NCCc2sc3nc(-c4ccc(OC)cc4)nn3c2C)cc1 -8.46%
Cc1cccc(-n2c(=O)c3c4c(sc3n3cnnc23)CCCC4)c1 -2.13%
CCN1CCN(c2c(S(=O)(=O)c3ccc(C)c(C)c3)cnc3cc(OC)c(OC)cc23)CC1 -27%
Cc1cc(=O)n(Cc2cccc(Cl)c2)c2c1c(C)nn2-c1ccccc1 -13.3%
Cc1cc(C)cc(NC2=CC(c3cccc(F)c3)N(c3cc(C)cc(C)c3)C2=O)c1 (stereo not given) 12.7%
CCN(CC)C(=O)c1sc2c(c1C)c(=O)n(-c1ccccc1)c(=O)n2CC(=O)Nc1ccc(C)cc1C 0%
CCCCSc1ncnc2c1c(-c1ccccc1)cn2-c1cccc(F)c1 -13.9%
CCN(CC)S(=O)(=O)c1nnc(NC(=O)COc2ccc(Cl)cc2)s1 -17.5%
CCOC(=O)Cn1cnc2onc(-c3ccc(F)cc3)c2c1=O -20.5%
COc1ccc(C(CNC(=O)COc2ccc(Cl)c(C)c2)N2CCOCC2)cc1 (stereo not given) -7.72%
Cc1cc(C)cc(NS(=O)(=O)c2ccc3c(c2)NC(=O)C(C)S3)c1 (stereo not given) -26.2%
Cc1c(C(=O)NCc2ccccc2Br)oc2c1-c1[nH]ncc1CC2 23.8%
CCN1CCN(c2c(S(=O)(=O)c3ccc(OC)cc3)cnc3cc(OC)c(OC)cc23)CC1 -18.4%
CCc1ccc(S(=O)(=O)c2nnn3c2nc(NC2CCCCCC2)c2sccc23)cc1 -8.58%
CCOC(=O)C(CC)Sc1ccc2nnc(CCNS(=O)(=O)c3ccc(C)cc3)n2n1 (stereo not given) -5.54%
CCOCCCNC(=O)C1CCC(CNS(=O)(=O)c2ccc(NC(C)=O)cc2)CC1 (stereo not given) 1.79%
Cc1ccc(C)c(CN2C(=O)c3ccccc3S(=O)c3ccc(C(=O)NCc4ccccc4)cc32)c1 (stereo not given) -20.9%
COc1ccccc1Cc1nc2ccccc2[nH]c1=O 24.9%
CCn1cc(C(=O)N2CCN(c3cccc(Cl)c3)CC2)c(=O)c2cc(S(=O)(=O)N3CCCCC3)ccc21 -26.6% [at 11.5 µM]
COc1ccc(OC)c(NC(=O)N2CCN(S(=O)(=O)c3ccc4c(ccn4C)c3)CC2)c1 -23.5%
COc1ccc(C(CNC(=O)c2oc3ccc(C)cc3c2C)N2CCOCC2)cc1 (stereo not given) -5.19%
COc1cc(OC)cc(C(=O)Nc2ccc3nc(N4CCCCC4)cc(C)c3c2)c1 -28.5%
CC(C)Cn1c(=O)c2ccccc2n2c(CCC(=O)N3CCN(c4ccccc4F)CC3)nnc12 -1.78%
Cc1ccc2nc(-c3ccc(O)cc3)c(Nc3ccc4c(c3)OCCO4)n2c1 1.41%
CCCSCCCNC(=O)C1CCN(c2nn3cc(-c4ccc(F)cc4)nc3s2)CC1 -14.3%
CCC1CCCCN1CCCNC(=O)c1cc2c(Cl)nc3ccccc3c2s1 (stereo not given) -20%
Cc1ccc(C)n1-c1nnc(N2CCCC(C(=O)Nc3ccc(C(C)C)cc3)C2)s1 (stereo not given) 16.5%
COC(=O)c1ccccc1NC(=O)Cn1c(=O)n(Cc2ccc(C(=O)NCc3ccc4c(c3)OCO4)cc2)c(=O)c2ccccc21 -5.96%
CCOC(=O)c1c(C)oc2ncnc(Nc3ccc(OCC)cc3)c12 2.05%
COc1cccc(C(=O)c2sc3nc(-c4ccccc4)cc(C(F)(F)F)c3c2N)c1 -24.4%
O=C(CN1C(=O)CCc2cc(S(=O)(=O)N3CCOCC3)ccc21)NCc1ccc(F)cc1 -31.8%
Cc1ccc(CNC(=O)c2ccc3c(c2)nc(C)n3-c2cc(C)cc(C)c2)cc1 0.579%
O=C(COc1ccccc1F)Nc1ccc(-c2nc3ccccc3s2)cc1 27.7%
Cc1ccc(N(CC(=O)NCCc2ccccc2)S(=O)(=O)N(C)C)cc1 -1.76%
COc1cc(C)ccc1OCCSc1nc2ccc(NC(=O)c3ccc(F)cc3)cc2s1 -4.24%
CCCCOc1ccc(C(=O)Nc2ccc(-c3nc4ccccc4s3)cc2C)cc1 41.1%
Cn1ccc2cc(S(=O)(=O)N3CCC(C(=O)NCCc4ccccc4)CC3)ccc21 -11.8%
N#Cc1ccccc1NC(=O)Cn1cnc2onc(-c3cccc(F)c3)c2c1=O -1.01%

Potency, active:
CCCN(c1ccccc1CC)S(=O)(=O)c1ccc2c(c1)CC(C)N2C(=O)C1CC1 (stereo not given) 22.4 µM
